{"source": "paper PMC7819943", "about": "“Rice protein-binding microarrays: a tool to detect cis-acting elements near promoter regions in rice”", "note": "The other results are listed elsewhere or left out.", "data": [{"target": "T1, OsWOX13 (Oryza sativa, UniProt Q5QMM3 1-267)", "T1 sequence": "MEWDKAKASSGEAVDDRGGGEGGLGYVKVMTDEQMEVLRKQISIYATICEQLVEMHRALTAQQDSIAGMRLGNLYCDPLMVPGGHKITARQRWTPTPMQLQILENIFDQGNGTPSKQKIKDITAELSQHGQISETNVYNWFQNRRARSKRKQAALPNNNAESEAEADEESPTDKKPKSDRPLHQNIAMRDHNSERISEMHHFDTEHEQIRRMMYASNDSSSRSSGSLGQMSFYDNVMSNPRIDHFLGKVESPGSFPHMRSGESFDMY", "assay": "protein-binding microarray (RPBM); PBS, 2% BSA, 51.3 ng/ul salmon testes DNA, 50 uM zinc acetate, 200 nM TF, 25 C, 1 h; high values mean tight binding", "settings": "protein: recombinant; tags: N-terminal polyhistidine and DsRed monomer fusion (pET32a); label: CyDye5-dUTP incorporated in the synthesized complementary strand; 3' TTTTT single-stranded linker to array surface; dsDNA, one strand shown", "how_it_was_run": "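The binding signal is fluorescence intensity per feature, in arbitrary units, read on an Axon 4000B scanner. Polyhistidine- and DsRed-tagged transcription factors (N-terminal fusions) from E. coli BL21-CodonPlus were purified on Ni–NTA and applied at 200 nM for 1 h at 25 °C to a double-stranded, BSA-blocked custom Agilent array in buffer with 50 µM zinc acetate.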", "values": [{"sequence": "GGGTGGGATTGGGATTGGGAAATGAATGAAGGGTTAGGATCGGAGTCACCTAGTGCAG", "binding signal": "24300 fluorescence intensity (a.u.)"}, {"sequence": "GTAGGGATTGGTTGATATATATAAGAATGCAAATGAAGTTCGGAGTCACCTAGTGCAG", "binding signal": "5080 fluorescence intensity (a.u.)"}, {"sequence": "TTTGATGATTCTCATTAGGTATTTCCCCACAGATAACAGACGGAGTCACCTAGTGCAG", "binding signal": "3560 fluorescence intensity (a.u.)"}, {"sequence": "ATCCAATCAATAATGAGCGATGCGATGAATGATGCATTGTCGGAGTCACCTAGTGCAG", "binding signal": "31300 fluorescence intensity (a.u.)"}, {"sequence": "CTCTCATAATTAATCCATCGCTTCGAAAACGATTATCGGTCGGAGTCACCTAGTGCAG", "binding signal": "7270 fluorescence intensity (a.u.)"}, {"sequence": "AGAGATGATGTGACTGAAAAGTTGTGTGTGTATGATAGGTCGGAGTCACCTAGTGCAG", "binding signal": "6250 fluorescence intensity (a.u.)"}, {"sequence": "AAATTTTGAATTGTTTGAAATTGACTCCTAAACACATTGACGGAGTCACCTAGTGCAG", "binding signal": "3840 fluorescence intensity (a.u.)"}, {"sequence": "GTGATGGAATTTACACCTATTGTCTTATTCAGGTTTTGATCGGAGTCACCTAGTGCAG", "binding signal": "3540 fluorescence intensity (a.u.)"}, {"sequence": "CGGAATTGAATTTTGGTTGAAACATTGTTTCCAATACGCACGGAGTCACCTAGTGCAG", "binding signal": "16900 fluorescence intensity (a.u.)"}, {"sequence": "AAAAGATTGAGAAATCATTCTTTTAGTACAGGTCATACCTCGGAGTCACCTAGTGCAG", "binding signal": "23700 fluorescence intensity (a.u.)"}, {"sequence": "ACATCAATCTTGAAAATCACGATGAACATGACGTGGATTTCGGAGTCACCTAGTGCAG", "binding signal": "19700 fluorescence intensity (a.u.)"}, {"sequence": "CGAAATGGGAGGCGGGGTTTAGGGTTTCCGGCGGGGAGGGCGGAGTCACCTAGTGCAG", "binding signal": "5390 fluorescence intensity (a.u.)"}, {"sequence": "GAGATAAATGATCAACTAGTCCGTGAATTTGACACCGATGCGGAGTCACCTAGTGCAG", "binding signal": "7110 fluorescence intensity (a.u.)"}, {"sequence": "GATTATTGATTTATCTTTCAATTAATTAAGCACCTTGGTACGGAGTCACCTAGTGCAG", "binding signal": "45200 fluorescence intensity (a.u.)"}, {"sequence": "TAATGAAATATAATTGGCAGTTCTCCTGTCGGTTTAGTTTCGGAGTCACCTAGTGCAG", "binding signal": "6930 fluorescence intensity (a.u.)"}, {"sequence": "TGCAATTTATTCCATTATGCTGAATTAAACATAGAAACGCCGGAGTCACCTAGTGCAG", "binding signal": "4340 fluorescence intensity (a.u.)"}, {"sequence": "ATTTTAATTAGCTAACACCATTGCGGTGGTACTATTCCAACGGAGTCACCTAGTGCAG", "binding signal": "19700 fluorescence intensity (a.u.)"}, {"sequence": "TTGCAATTAAGTTGATTGTTATTAAAAGACTAGGATGTTACGGAGTCACCTAGTGCAG", "binding signal": "14100 fluorescence intensity (a.u.)"}, {"sequence": "TCTAATCACTGTATTAGTAAATTACTGATATACCCTTAATCGGAGTCACCTAGTGCAG", "binding signal": "10200 fluorescence intensity (a.u.)"}, {"sequence": "TTATTGGACGTTGATTTGTATAATTCAATAAATTATAGATCGGAGTCACCTAGTGCAG", "binding signal": "9040 fluorescence intensity (a.u.)"}, {"sequence": "CATGCCTAAATTTAATTATGTAATATTGCTTTCATCTGTACGGAGTCACCTAGTGCAG", "binding signal": "11600 fluorescence intensity (a.u.)"}, {"sequence": "TAAAATTAACGTGGACACTAATCTAGTTTAGACTTTGATTCGGAGTCACCTAGTGCAG", "binding signal": "15500 fluorescence intensity (a.u.)"}, {"sequence": "CGTATGAACAAATTTGCATCCATTATCTTTGCCTGCACACCGGAGTCACCTAGTGCAG", "binding signal": "3860 fluorescence intensity (a.u.)"}, {"sequence": "ACTAATTATTGTTTATTGGGATCAAAGTGCCCGCACTATCCGGAGTCACCTAGTGCAG", "binding signal": "30700 fluorescence intensity (a.u.)"}, {"sequence": "TTTAACTGCCAATTTGCCTGAATGATTTGCAGATGAGGAACGGAGTCACCTAGTGCAG", "binding signal": "41700 fluorescence intensity (a.u.)"}, {"sequence": "TTAATCAGAATTATCGTCTGTCAAGATAATATATTATAAGCGGAGTCACCTAGTGCAG", "binding signal": "3430 fluorescence intensity (a.u.)"}, {"sequence": "TATGACAGGTGGGATTAGGTATTAATAGTGTAGTATGTAACGGAGTCACCTAGTGCAG", "binding signal": "8510 fluorescence intensity (a.u.)"}, {"sequence": "GGCGACAAGACAGATAGACAGAAGCCATTCATATCGAACCCGGAGTCACCTAGTGCAG", "binding signal": "5190 fluorescence intensity (a.u.)"}, {"sequence": "CGCAACAAAGCAATCAAATACTACTACGCGATATGAGAGACGGAGTCACCTAGTGCAG", "binding signal": "3460 fluorescence intensity (a.u.)"}, {"sequence": "ATAACCGCCCTAATTTACTTTAGCATACGTGGAGTACAAGCGGAGTCACCTAGTGCAG", "binding signal": "3710 fluorescence intensity (a.u.)"}, {"sequence": "ATTTGTATAATTGGAACCATGCCATTCCAACACAACAAAACGGAGTCACCTAGTGCAG", "binding signal": "6320 fluorescence intensity (a.u.)"}, {"sequence": "CTTGGCATTGATTGTAAGCTGGTATCGAACTCTTCAGTAACGGAGTCACCTAGTGCAG", "binding signal": "16200 fluorescence intensity (a.u.)"}, {"sequence": "ATATTTTGTAAATTATAATAACTATTTATGTGTCCTCTCACGGAGTCACCTAGTGCAG", "binding signal": "4080 fluorescence intensity (a.u.)"}, {"sequence": "CATTGTGTGAAATTATTGTAATTGTAGAATAAGAGAATCACGGAGTCACCTAGTGCAG", "binding signal": "3330 fluorescence intensity (a.u.)"}, {"sequence": "CCTTCCTAAATTATCTGGCGATATATTGTGCGCACTGACTCGGAGTCACCTAGTGCAG", "binding signal": "4880 fluorescence intensity (a.u.)"}, {"sequence": "TAGCTTAATTAATTGGTATGCAATCCATGCCTCTCTGCAGCGGAGTCACCTAGTGCAG", "binding signal": "40800 fluorescence intensity (a.u.)"}, {"sequence": "GGTATGCATTGGAAACTTTTGATTGAGAGCACTGTTGCCTCGGAGTCACCTAGTGCAG", "binding signal": "9620 fluorescence intensity (a.u.)"}, {"sequence": "ATGCGTGATTACGTACAGGAGGGAGATTCGTACGTACGCGCGGAGTCACCTAGTGCAG", "binding signal": "12200 fluorescence intensity (a.u.)"}, {"sequence": "ATATAGATTTACGTTGGATTTATACTGATTCTAACCAAATCGGAGTCACCTAGTGCAG", "binding signal": "13600 fluorescence intensity (a.u.)"}, {"sequence": "CGCGTAATTTGGCTATAAATCCGCCGCGGATTTCCTTCCTCGGAGTCACCTAGTGCAG", "binding signal": "15100 fluorescence intensity (a.u.)"}, {"sequence": "ATTGATCTAATTGAAGTTGCTTGGACTTATGAACAACTTTCGGAGTCACCTAGTGCAG", "binding signal": "20100 fluorescence intensity (a.u.)"}, {"sequence": "GGCTAAATTTTGCCCCAGCATTGACAAGTGACAACTCCCCCGGAGTCACCTAGTGCAG", "binding signal": "6210 fluorescence intensity (a.u.)"}]}]}
